This is one part of the list. Interaction screen of human proteins with wild-type SARS-CoV-2 proteins by split-DHFR complementation in yeast, 1 µg/mL methotrexate. Value = fitness of the pair (three or more lineages) minus that of the viral protein without a human partner, on a scale set by negative (0) and fused positive (1) controls, mean of up to three cultures; higher = more likely to interact. Active = false discovery rate below 0.05 (one-sided t-test) in at least one culture. Nearly all pairs are not hits, and differences among them are mostly noise (correlation between cultures about 0.3); most hits were seen in one culture only. Human sequences are the Swiss-Prot entries looked up by gene name; the clone may be another isoform. NSP2 values were corrected by the authors for a growth advantage. Listed are human proteins with a hit and a random twelfth of the others.
How the values were obtained:
Assay in all cases: yeast fitness gain over the viral ORF with no human partner (scaled fitness); higher = more likely to interact
[1] = molecular target: SARS-CoV-2 E
Experimental: (§1)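 Split mouse DHFR complementation in pooled diploid yeast: human ORFeome clones carry one fragment and viral ORFs the other; barcoded lineages compete in 1 µg/mL methotrexate and fitness is read by barcode sequencing in up to three cultures.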

[2] = molecular target: SARS-CoV-2 M
Experimental: as §1

[3] = molecular target: SARS-CoV-2 N
Experimental: as §1

[4] = molecular target: SARS-CoV-2 NSP1
Experimental: as §1

[5] = molecular target: SARS-CoV-2 NSP10
Experimental: as §1

[6] = molecular target: SARS-CoV-2 NSP12
Experimental: as §1

[7] = molecular target: SARS-CoV-2 NSP13
Experimental: as §1

[8] = molecular target: SARS-CoV-2 NSP14
Experimental: as §1

[9] = molecular target: SARS-CoV-2 NSP15
Experimental: as §1

[10] = molecular target: SARS-CoV-2 NSP16
Experimental: as §1

[11] = molecular target: SARS-CoV-2 NSP2
Experimental: as §1

[12] = molecular target: SARS-CoV-2 NSP4
Experimental: as §1

[13] = molecular target: SARS-CoV-2 NSP5
Experimental: as §1

[14] = molecular target: SARS-CoV-2 NSP6
Experimental: as §1

[15] = molecular target: SARS-CoV-2 NSP7
Experimental: as §1

[16] = molecular target: SARS-CoV-2 NSP8
Experimental: as §1

[17] = molecular target: SARS-CoV-2 NSP9
Experimental: as §1

[18] = molecular target: SARS-CoV-2 ORF10
Experimental: as §1

[19] = molecular target: SARS-CoV-2 ORF3A
Experimental: as §1

[20] = molecular target: SARS-CoV-2 ORF3B
Experimental: as §1

[21] = molecular target: SARS-CoV-2 ORF6
Experimental: as §1

[22] = molecular target: SARS-CoV-2 ORF7A
Experimental: as §1

[23] = molecular target: SARS-CoV-2 ORF7B
Experimental: as §1

[24] = molecular target: SARS-CoV-2 ORF8
Experimental: as §1

[25] = molecular target: SARS-CoV-2 ORF9B
Experimental: as §1

[26] = molecular target: SARS-CoV-2 ORF9Bwu (the 73-codon ORF)
Experimental: as §1

[27] = molecular target: SARS-CoV-2 S
Experimental: as §1

Measured: yeast fitness gain

B1: TSPAN5, P62079 (protein)
chain: MSGKHYKGPEVSCCIKYFIFGFNVIFWFLGITFLGIGLWAWNEKGVLSNISSITDLGGFDPVWLFLVVGGVMFILGFAGCIGALRENTFLLKFFSVFLGIIFFLELTAGVLAFVFKDWIKDQLYFFINNNIRAYRDDIDLQNLIDFTQEYWQCCGAFGADDWNLNIYFNCTDSNASRERCGVPFSCCTKDPAEDVINTQCGYDARQKPEVDQQIVIYTKGCVPQFEKWLQDNLTIVAGIFIGIALLQIFGICLAQNLVSDIEAVRASW
inactive: [1] 0.257 | [2] 0.0781 | [3] 0.0457 | [4] -0.0424 | [5] 0.0332 | [6] -0.0595 | [7] 0.0443 | [8] 0.172 | [9] 0.0159 | [10] -0.0876 | [11] -0.164 | [12] 0.492 | [13] 0.00945 | [14] 0.12 | [15] 0.0588 | [16] -0.0757 | [17] 0.0472 | [18] -0.0167 | [19] 0.0996 | [20] -0.0399 | [21] -0.00351 | [22] 0.592 | [24] -0.0371 | [25] 0.056 | [26] 0.081 | [27] 0.0242
active: [23] 0.27

B2: RCBTB2, O95199 (protein)
chain: MEEELPLFSGDSGKPVQATLSSLKMLDVGKWPIFSLCSEEELQLIRQACVFGSAGNEVLYTTVNDEIFVLGTNCCGCLGLGDVQSTIEPRRLDSLNGKKIACLSYGSGPHIVLATTEGEVFTWGHNAYSQLGNGTTNHGLVPCHISTNLSNKQVIEVACGSYHSLVLTSDGEVFAWGYNNSGQVGSGSTVNQPIPRRVTGCLQNKVVVTIACGQMCCMAVVDTGEVYVWGYNGNGQLGLGNSGNQPTPCRVAALQGIRVQRVACGYAHTLVLTDEGQVYAWGANSYGQLGTGNKSNQSYPTPVTVEKDRIIEIAACHSTHTSAAKTQGGHVYMWGQCRGQSVILPHLTHFSCTDDVFACFATPAVTWRLLSVEPDDHLTVAESLKREFDNPDTADLKFLVDGKYIYAHKVLLKIRCEHFRSSLEDNEDDIVEMSEFSYPVYRAFLEYLYTDSISLSPEEAVGLLDLATFYRENRLKKLCQQTIKQGICEENAIALLSAAVKYDAQDLEEFCFRFCINHLTVVTQTSGFAEMDHDLLKNFISKASRVGAFKN
inactive: [2] 0.0974 | [4] 0.0214 | [6] 0.103 | [7] 0.0429 | [8] 0.0791 | [10] 0.0277 | [11] 0.0867 | [12] 0.0466 | [13] 0.106 | [16] -0.0754 | [17] 0.067 | [18] -0.0925 | [20] 0.0309 | [21] 0.00184 | [23] 0.0166 | [24] 0.000257 | [25] 0.0326 | [27] -0.044

B3: TREML2, Q5T2D2 (protein)
chain: MAPAFLLLLLLWPQGCVSGPSADSVYTKVRLLEGETLSVQCSYKGYKNRVEGKVWCKIRKKKCEPGFARVWVKGPRYLLQDDAQAKVVNITMVALKLQDSGRYWCMRNTSGILYPLMGFQLDVSPAPQTERNIPFTHLDNILKSGTVTTGQAPTSGPDAPFTTGVMVFTPGLITLPRLLASTRPASKTGYSFTATSTTSQGPRRTMGSQTVTASPSNARDSSAGPESISTKSGDLSTRSPTTGLCLTSRSLLNRLPSMPSIRHQDVYSTVLGVVLTLLVLMLIMVYGFWKKRHMASYSMCSDPSTRDPPGRPEPYVEVYLI
inactive: [1] 0.0842 | [2] 0.0629 | [4] -0.0999 | [5] -0.00404 | [6] 0.0675 | [7] 0.0332 | [8] -0.375 | [9] 0.0592 | [10] 0.0494 | [11] -0.113 | [13] 0.0411 | [14] 0.0669 | [15] 0.113 | [16] 0.0038 | [17] -0.128 | [18] 0.0221 | [19] -0.0699 | [20] -0.017 | [21] -0.0389 | [22] 0.0417 | [23] 0.0406 | [24] -0.0166 | [25] 0.0244 | [26] -0.0407 | [27] 0.0277

B4: TUBG2, Q9NRH3 (protein)
chain: MPREIITLQLGQCGNQIGFEFWKQLCAEHGISPEGIVEEFATEGTDRKDVFFYQADDEHYIPRAVLLDLEPRVIHSILNSPYAKLYNPENIYLSEHGGGAGNNWASGFSQGEKIHEDIFDIIDREADGSDSLEGFVLCHSIAGGTGSGLGSYLLERLNDRYPKKLVQTYSVFPYQDEMSDVVVQPYNSLLTLKRLTQNADCVVVLDNTALNRIATDRLHIQNPSFSQINQLVSTIMSASTTTLRYPGYMNNDLIGLIASLIPTPRLHFLMTGYTPLTTDQSVASVRKTTVLDVMRRLLQPKNVMVSTGRDRQTNHCYIAILNIIQGEVDPTQVHKSLQRIRERKLANFIPWGPASIQVALSRKSPYLPSAHRVSGLMMANHTSISSLFESSCQQFDKLRKRDAFLEQFRKEDMFKDNFDEMDRSREVVQELIDEYHAATQPDYISWGTQEQ
inactive: [1] 0.0476 | [2] 0.00564 | [3] 0.02 | [4] -0.0298 | [5] 0.0391 | [6] 0.0328 | [7] 0.0601 | [8] 0.0777 | [9] -0.0433 | [10] 0.00282 | [11] -0.109 | [12] 0.0595 | [13] 0.0276 | [14] 0.00297 | [15] -0.0217 | [16] 0.000993 | [17] -0.012 | [18] 0.0233 | [19] 0.0599 | [20] 0.102 | [21] 0.0543 | [22] -0.00877 | [23] 0.0382 | [24] -0.0396 | [25] 0.00779 | [26] -0.0671 | [27] 0.0103

Reference: the supplement of paper PMC11741623
